PubChem BioAssay AID652104 (National Center for Advancing Translational Sciences (NCATS), 2013)
Where “and” joins values, the source holds several entries; their conditions need not be identical. Equal values may be shown once. The campaign covered roughly 410,000 compounds. About 7,200 (1.8%) were called active. The inconclusive results got no clear call from the source; some entries with a clear call stand among them for comparison. Calls come from the whole dose curve; as a rule, active = well fitted activation curve with a large enough effect; inconclusive = small, poorly fitted or top-dose-only effect, or another doubt; inactive = no such curve, though single readings can be large or run the other way. Where the call is inconclusive, the potency comes from a doubtful curve fit. Some structures have more than one record in an assay (separate samples or runs), and their calls can disagree.

experiment: qHTS of TDP-43 Inhibitors; details: TDP-43 expressing yeast growth rescue, BacTiter-Glo, 24 h; growth rescue (activation): at 46.1 µM (top of the series) unless noted; note: nearly all actives have a fitted effect of over 50% in size; for growth rescue (activation): % of control where 0% means no effect
Procedure, shortened: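 Readout is BacTiter-Glo luminescence of cell growth, so inhibitors register as activators. TDP-43-expressing yeast at OD600=0.02 in galactose medium, after raffinose pregrowth to mid-log, were incubated with compound for 24 hr at 30 deg C.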
Potency is the fitted concentration of half-maximal effect; tags give direction and shape of the fitted curve.

Potency, active:
C/C(=N/Nc1ncc(Br)cn1)c1ccc(Br)cc1 28.2 µM, O=C(NCCc1csc(-c2cccc(F)c2)n1)c1ccccc1C(F)(F)F 17.8 µM, CCCN1C(=O)/C(=C/c2ccc3c(c2)OCO3)NC1=S 14.1 µM, O=C(CCCc1ccccc1)Nc1ccccc1[N+](=O)[O-] 11.2 µM, O=C(/C=C/c1ccc(Cl)cc1)N1CCN(c2c(Cl)cccc2[N+](=O)[O-])CC1 11.2 µM, Cc1ccc(C2CC(c3cccs3)=NN2C(=O)CCl)cc1 (stereo unspecified) 12.6 µM, CCOC(=O)c1cc(OC(=O)c2ccc(OC)cc2)n(-c2ccccc2)n1 17.8 µM, O=C(OCn1ncc(Cl)c(Cl)c1=O)c1ccc(C(F)(F)F)cc1 3.98 µM, CCNC(=S)NN=C1c2ccccc2-c2ccccc21 12.6 µM

Potency, inconclusive:
Cc1ccc(Cn2c(/C=C/c3ccco3)nc3ccccc32)cc1 31.6 µM [activator, single point], Cc1ccc(-c2c(C(=O)NCc3ccc(F)cc3)oc(=O)c3ccccc23)cc1 31.6 µM [activator, single point] and 35.5 µM [activator, single point], Cc1ccc(OCCCC(=O)NNC(=O)c2ccccn2)cc1 31.6 µM [activator, single point], COC(=O)[C@@H](Cc1ccccc1)NC(=O)[C@H]1O[C@@H](n2cnc3c(N)ncnc32)[C@H](O)[C@@H]1O 0.562 µM [activator, full curve], CC(=Nc1ccccc1)c1sc2ccccc2c1O 11.2 µM [activator, single point], O=C(NCc1ccccc1)C(CCc1ccccc1)n1c(=O)c(-c2cc3ccccc3[nH]2)nc2ccccc21 (stereo unspecified) 1.12 µM [activator, partial curve], COc1ccc(NC(=O)/C=C/c2c(Cl)nc3ccccn23)cc1 35.5 µM [activator, single point], COc1ccc2c(c1)c1c(c(=O)n(Cc3ccccc3)c(=O)n1CC(=O)NCc1ccc(C)cc1)n2C 0.562 µM [activator, full curve, poor fit], CCOC(=O)c1sc(N(Cc2ccccc2)C(=O)CSc2nnc(C3CC3)n2N)nc1C 12.6 µM [activator, single point], COc1cccc(CN(C)c2nc(-c3cccs3)nc3ccccc23)c1 31.6 µM [activator, single point], Cc1cccc(C2CC(c3ccc(Br)cc3)Nc3nc(N)nn32)c1 (stereo unspecified) 10 µM [activator, partial curve], CCN(CC)C(=O)[C@H]1CC(CC(=O)NC/C=C(\C)CCC=C(C)C)C(=O)N2CCc3c([nH]c4ccccc34)[C@]12C (stereo partly specified) 35.5 µM [activator, single point], CCCCC1=CC2=CC(=O)C(C)(OC(=O)CC)C(=O)C2=CN1c1cccc(C#N)c1 (stereo unspecified) 5.01 µM [activator, partial curve], O=C(NCc1ccccc1Cl)C1CCCN(S(=O)(=O)c2cnc[nH]2)C1 (stereo unspecified) 1.12 µM [activator, full curve, poor fit], COC(=O)[C@@]12C[C@@H](CC(=O)NCCc3ccccc3OC)C(=O)N(Cc3ccc4c(c3)OCO4)C1=CCC(C)(C)C2 35.5 µM [activator, partial curve, poor fit], Cn1nnnc1SCC(=O)N1c2ccccc2Sc2ccc(Cl)cc21 39.8 µM [activator, partial curve, poor fit], c1ccc(-c2nc(N3CCN(c4ccccc4)CC3)nc(-n3ccnc3)n2)cc1 25.1 µM [activator, single point], O=C(Nc1ccccc1)C1(c2ccccc2)CC1(Cl)Cl (stereo unspecified) 11.2 µM [activator, partial curve], Cc1ccc(Cn2nnc(C(=O)Nc3cccc(C)c3C)c2N)cc1 4.47 µM [activator, full curve], Cc1ccc(-n2ncc(C(=O)NCc3ccccn3)c2C2CCN(C(=O)OC(C)(C)C)CC2)c(C)c1 1.58 µM [activator, partial curve], Oc1ccc(C[C@H]2CNC(=S)N2C[C@H]2CCCN2C[C@H](Cc2ccccc2)N2C[C@H](Cc3ccc(O)cc3)N(CC3CCCCCC3)C2=S)cc1 0.631 µM [activator, full curve, poor fit], CCOC(=O)c1ccc(NS(=O)(=O)c2ccc3c(c2)OCCO3)cc1 12.6 µM [activator, single point], O=C(O)c1ccccc1C(=O)c1cccc2ccccc12 6.31 µM [activator, partial curve], COc1ccc(CN2c3c(Br)cccc3C(=O)CS2(=O)=O)cc1 11.2 µM [activator, partial curve], COC(=O)c1cnc(SCc2ccc([N+](=O)[O-])cc2)n1C 11.2 µM [activator, partial curve], COc1ccccc1C1=NC(c2ccc(F)cc2)N=C1C (stereo unspecified) 25.1 µM [activator, single point], COc1ccc(OC)c(C(c2nnnn2C2CCCC2)N2CCN(c3ccc(F)cc3)CC2)c1 (stereo unspecified) 15.8 µM [activator, single point], O=C(N/N=C/c1cc(Cl)cc([N+](=O)[O-])c1O)C(O)(c1ccccc1)c1ccccc1 8.91 µM [activator, full curve, poor fit], Nn1c(Cc2cccc3ccccc23)nnc1SCCOc1ccc(F)cc1 20 µM [activator, single point], CC1CCCN(C(=O)c2cccc(S(=O)(=O)N3CCCc4ccccc43)c2)C1 (stereo unspecified) 20 µM [activator, partial curve], Cc1nc2ccc(NC(=O)COc3ccccc3C)cc2s1 8.91 µM [activator, partial curve], C/C(=N\NC(=S)NCc1ccccc1)c1ccco1 31.6 µM [activator, single point], COc1cccc(-c2cc(C(=O)N3CCN(Cc4ccc5c(c4)OCO5)CC3)on2)c1 11.2 µM [activator, partial curve], O=C(CCCl)N1CCN(c2nc(-c3ccccc3)cs2)CC1 35.5 µM [activator, partial curve], CC1=NN(c2ccccc2)C(=O)/C1=C\c1cc(C)n(C)c1C 2.24 µM [activator, single point], Cc1cccc(N2C(=O)C(Cc3ccccc3)NC2=S)c1 (stereo unspecified) 35.5 µM [activator, partial curve], COc1ccc(NC(=O)CSCc2ccc(C#N)cc2)c(OC)c1 10 µM [activator, partial curve], COC(=O)c1sccc1NC(=S)N1CCN(c2cc(C)ccc2C)CC1 11.2 µM [activator, partial curve], O=C1CCN(C(=O)Cc2ccccc2)c2ccccc21 22.4 µM [activator, partial curve], COc1ccc(C(=O)NC(=S)Nc2ccc(N3CCOCC3)cc2)cc1Cl 14.1 µM [activator, single point], COc1ccc(-n2cc(C(=O)Nc3cc(F)ccc3F)c3ccccc3c2=O)cc1 17.8 µM [activator, single point], Cc1ccccc1NC(=S)c1ccc2ccccc2n1 3.55 µM [activator, partial curve]

Potency, inactive and 15.8 µM (active):
COC(=O)Cn1ccc2cc(S(=O)(=O)N3CCCCCC3)ccc21

Growth rescue (activation), inactive:
O=C1CN(C(=O)c2ccc(Br)o2)C(c2ccccc2)c2cc(Cl)ccc2N1 (stereo unspecified) 1.82%, CSCCC(NS(=O)(=O)c1ccc(Cl)cc1)C(=O)OCC(=O)N1CCCc2ccccc21 (stereo unspecified) -19.6% [at 9.22 µM], Cc1nonc1C(=O)N/N=C/c1ccc(O)c(O)c1 15.5%, CCN(C(=O)CN1C(=O)COc2ccc(S(=O)(=O)N3CCOCC3)cc21)c1cccc(C)c1 15.5%, CC(C)(C)N1C(=O)c2ccccc2NC(=O)C1C(=O)Nc1ccc(N2CCOCC2)cc1 (stereo unspecified) 13.2%, O=c1c2cc3c(cc2n(Cc2ccccc2)c(=O)n1Cc1nc(-c2ccccc2)no1)OCO3 -1.25%, C=CCn1c(-c2csc3ccccc23)n[nH]c1=S 19.1%, COc1ccc(CNC(=O)CCCn2c(=O)c3cccn3c3ccc(F)cc32)cc1OC 6.03%, Cc1ccccc1Cn1nnc2c(=O)[nH]c(C3CCN(C(=O)c4ccccc4Cl)CC3)nc21 23.2%, CCCn1c(=N)c(C(=O)NCc2cccnc2)cc2c(=O)n3ccccc3nc21 16%, COc1ccccc1-c1cc2nc(C)c(CCC(=O)NCCc3ccc(SC)cc3)c(C)n2n1 -37.4%, CCc1nc2ccc(C(=O)NCc3ccccc3OC)cn2c1N(CC)CCN(C)C 20.9%, COc1cccc(CNC(=O)C2CCN(Cc3cc4ccccc4n3Cc3ccc(C)cc3)CC2)c1 16.3%, O=C(COC(=O)COc1ccccc1)NC12CC3CC(CC(C3)C1)C2 -13.3%
